Results taken from PubChem BioAssay AID588795 (National Center for Advancing Translational Sciences (NCATS), 2011).
“And” between values parts separate entries of the source, which are not always exact repeats. Equal values may be shown once. Screen size: about 390,000 compounds; about 1,400 (0.36%) were called active. The inconclusive results got no clear call from the source; some entries with a clear call stand among them for comparison. Calls follow the shape of the dose curve; as a rule, active = well fitted inhibition curve with a large enough effect; inconclusive = small, poorly fitted or top-dose-only effect; inactive = no such curve, though single readings can be large or run the other way. Potencies beside an inconclusive call are fits to weak or partial responses and may not hold up.

What follows are molecules tested against Flap endonuclease 1 (Homo sapiens) (UniProt P39748) (assay: qHTS Assay for the Inhibitors of Human Flap endonuclease 1 (FEN1).). Details: Recombinant FEN1 flap cleavage, fluorescence, 15 min; series mostly up to 114 µM.
Sequence of UniProt P39748 (P39748 whole entry, looked up): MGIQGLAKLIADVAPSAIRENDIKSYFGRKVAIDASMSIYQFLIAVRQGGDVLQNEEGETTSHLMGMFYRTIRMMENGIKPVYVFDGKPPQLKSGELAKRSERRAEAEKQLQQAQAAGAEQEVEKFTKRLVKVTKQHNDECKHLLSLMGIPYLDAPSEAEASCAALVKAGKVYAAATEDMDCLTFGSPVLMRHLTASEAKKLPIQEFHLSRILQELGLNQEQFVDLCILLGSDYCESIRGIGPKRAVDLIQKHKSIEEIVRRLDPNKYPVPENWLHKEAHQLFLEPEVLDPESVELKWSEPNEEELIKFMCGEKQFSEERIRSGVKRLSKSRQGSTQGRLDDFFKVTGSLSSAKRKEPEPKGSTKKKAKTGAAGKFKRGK
Method in brief: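 Concentration–response screening of FEN1 (10 nM): 15 min compound preincubation at room temperature, reaction started with 50 nM substrate and read at 0 and 15 min. Corrected, normalized data were fitted by a four-parameter Hill equation.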
Also: nearly all actives have a fitted effect of over 65% in size.
Potency is read from the fitted curve at half-maximal effect; tags tell the direction and shape of the fitted curve.

| Compound | Potency |
| --- | --- |
| CCN(CC)S(=O)(=O)c1cccc(-n2c(O)c(C=Nc3ccccc3C(=O)O)c3ccccc3c2=O)c1 | inconclusive: 89.1 µM [inhibitor, single point] |
| CCc1ccc(C(=O)c2oc3nc(C)cc(C)c3c2N)cc1 | inconclusive: 22.4 µM [inhibitor, full curve] |
| CCOC(=O)c1c(-c2ccc(C)cc2)csc1NC(=O)/C(C#N)=C/c1ccc(O)c(OC)c1 | inconclusive: 79.4 µM [inhibitor, partial curve, poor fit] |
| COC(=O)Cc1c[nH]c2cccc(OCC(O)CN(Cc3ccc([N+](=O)[O-])cc3)C(C)(C)C)c12 (stereo unspecified) | inconclusive: 50.1 µM [inhibitor, partial curve, poor fit] |
| N#C/C(=C(/O)c1ccc(-c2cccc([N+](=O)[O-])c2)o1)c1nc2ccccc2s1 | inactive |
| Cc1cc(C2C(C#N)=C(N)OC3=C2C(=O)CCC3)c(C)s1 (stereo unspecified) | inactive |
| Cc1cccc(N2NC(=O)/C(=C/c3ccc(-c4ccc(Cl)c(C(=O)O)c4)o3)C2=O)c1 | inconclusive: 50.1 µM [inhibitor, partial curve, poor fit] |
| NC(=O)c1ccc(N=Cc2ccc([N+](=O)[O-])s2)cc1 | inconclusive: 35.5 µM [inhibitor, partial curve] |
| COC(=O)[C@H]1[C@H]2C[C@@H]3c4[nH]c5cc(OC)ccc5c4CCN3C[C@H]2C[C@@H](OC(=O)c2cc(OC)c(OC)c(OC)c2)[C@@H]1OC | inconclusive: 39.8 µM [inhibitor, partial curve, poor fit] and inconclusive: 3.77 µM [inhibitor, partial curve, poor fit] |
| COc1cc2c(cc1OC)-c1cc3ccc(OC)c(OC)c3c[n+]1CC2 | inconclusive: 44.7 µM [inhibitor, partial curve] |
| COc1cccc(NC(=O)CSc2cc(C)c3ccccc3n2)c1 | inactive |
| COc1ccccc1-c1nc(CNC(=O)NC2CCCCC2)c(C)o1 | inactive |
| Cc1ccc(NC(=O)c2nc[nH]c2C(=O)N[C@@H](C)c2ccccc2)cc1 | inconclusive: 44.7 µM [inhibitor, partial curve, poor fit] |
| O=C(CCCCCn1c(=S)[nH]c2cc3c(cc2c1=O)OCO3)N1CCN(C(=O)c2ccco2)CC1 | inactive |
| CC(C)C[C@H](NC(=O)[C@@H](O)[C@H](N)Cc1ccccc1)C(=O)O | inconclusive: 8.44 µM [inhibitor, single point] |
| CCOc1ccccc1OCCCOc1ccc(C)cc1Cl | inconclusive: 89.1 µM [inhibitor, partial curve, poor fit] |
| C=CCc1ccc(O)c(-c2ccc(O)c(CC=C)c2)c1 | inconclusive: 70.8 µM [inhibitor, partial curve, poor fit] |
| O=C(NCCCN1CCOCC1)c1cc(-c2ccco2)nc2ccccc12 | inconclusive: 79.4 µM [inhibitor, partial curve, poor fit] |
| OCCN1CCN(c2nc(-c3ccccc3O)nc3ccccc23)CC1 | inconclusive: 39.8 µM [inhibitor, partial curve, poor fit] |
| CC(C)(C)NC(=O)CC1C[C@H](C(=O)N2CCCCC2)[C@@]2(C)c3[nH]c4ccccc4c3CCN2C1=O (stereo partly specified) | inactive |
| C[C@@H]1O[C@@H](O[C@@H]2[C@@H](O)[C@H](OCCc3ccc(O)c(O)c3)O[C@H](CO)[C@H]2OC(=O)/C=C/c2ccc(O)c(O)c2)[C@H](O)[C@H](O)[C@H]1O | inconclusive: 89.1 µM [inhibitor, partial curve, poor fit] |

| Compound | Potency |
| --- | --- |
| CCOC(=O)[C@H](CCc1ccccc1)N[C@@H](C)C(=O)N1[C@H](C(=O)O)C[C@H]2CCCC[C@@H]21 | inconclusive: 0.168 µM [inhibitor, full curve, poor fit] |
| CC(C)CC(COCc1ccc(C(F)(F)F)cc1)N1CCN(C(=O)c2ccc(C(F)(F)F)cc2)CCC1=O (stereo unspecified) | inconclusive: 44.7 µM [inhibitor, partial curve, poor fit] |
| Nc1ccc2c(c1)-c1ccc(F)cc1C2=O | inconclusive: 89.1 µM [inhibitor, single point] |
| CN(C)c1ccc(/C=N/NC(=O)c2ccc(Cn3cc(Br)cn3)o2)cc1 | inconclusive: 56.2 µM [inhibitor, partial curve] |
| COc1ccc(-c2nc(-c3ccc(O)cc3O)cs2)cc1OC | inconclusive: 50.1 µM [inhibitor, partial curve, poor fit] |
| CCC(=O)N1CCc2cc(Br)cc(S(=O)(=O)CCC(=O)N3CCN(c4cccc(C(F)(F)F)c4)CC3)c21 | inconclusive: 89.1 µM [inhibitor, single point] |
| CCOC(=O)c1c(NC(=O)CSc2c[nH]c3ccccc23)sc2c1CCC2 | inconclusive: 14.1 µM [inhibitor, full curve, poor fit] |
| CCOc1ccc2oc(-c3ccccc3)c(C(=O)O)c2c1 | inactive |
| Oc1ccc(/C=N/Nc2ccnc3cc(Cl)ccc23)cc1O | inconclusive: 56.2 µM [inhibitor, partial curve, poor fit] |
| Cn1c(O)c(N=NC(=O)Cc2c[nH]c3ccccc23)c2ccccc21 | inconclusive: 89.1 µM [inhibitor, single point] |
| CCOc1ccc(NC(=O)CSc2nc(-c3ccc(OC)cc3)nc3c2Cc2c(CO)cnc(C)c2O3)cc1 | inactive |
| COc1cccc(CNc2cccc3cccnc23)c1O | inconclusive: 44.7 µM [inhibitor, partial curve] |
| COC(=O)c1ccc(NC(=O)CSc2nc(=O)n(Cc3ccco3)c3c2CCC3)cc1 | inactive |
| c1ccc(CN2CCN(c3ncnc4c3[nH]c3ccccc34)CC2)cc1 | inconclusive: 89.1 µM [inhibitor, single point] |
| CCN1/C(=C/c2ccc3cc(C)ccc3[n+]2CC)Sc2cc(C)c(C)cc21 | active: 31.6 µM |
| CCCCn1c(=O)[nH]c2nc3cc(N)ccc3nc2c1=O | inconclusive: 11.2 µM [inhibitor, full curve] |
| Cc1nc(N)sc1-c1csc(Nc2ncccn2)n1 | inconclusive: 89.1 µM [inhibitor, single point] |
| Cc1ccc(SCC2(O)CCN(S(=O)(=O)c3ccc(Cl)cc3)CC2)cc1 | inconclusive: 89.1 µM [inhibitor, partial curve, poor fit] |
| O=S(=O)(c1ccc(OC(F)(F)F)cc1)N1CCC(O)(c2cccc(C(F)(F)F)c2)CC1 | inconclusive: 39.8 µM [inhibitor, partial curve, poor fit] |
| COc1cc(N2C(=O)C=CC2=O)c(OC)cc1Cl | inconclusive: 89.1 µM [inhibitor, single point] |
| CNc1nc(N2CCCN(C)CC2)nc2cc(OC)c(OC)cc12 | inconclusive: 25.1 µM [inhibitor, partial curve, poor fit] |

| Compound | Potency |
| --- | --- |
| CCCOc1ccc(/C=C/c2[nH]c(=O)[nH]c(=O)c2[N+](=O)[O-])cc1OCC | inactive |
| O=C(O)CCc1nn2c3ccccc3n(CC(=O)c3cccs3)c2nc1=O | inactive |
| CCOC(=O)c1c(C)[nH]c(C=Nc2ccc(OC)cc2)c1O | inconclusive: 56.2 µM [inhibitor, partial curve, poor fit] |
| COc1ccc(NC(=O)c2cc(Br)ccc2Cl)c(OC)c1 | inconclusive: 89.1 µM [inhibitor, single point] |
| CC1(C)C(=O)Nc2ccccc2N1C(=O)COC(=O)c1ccc([N+](=O)[O-])o1 | active: 20 µM |
| COc1ccc2c(CNCc3ccco3)c(C(=O)O)n(Cc3ccc(F)cc3Cl)c2c1 | inactive |
| O=C(Nc1cc(SCCO)cc([N+](=O)[O-])c1)c1ccc(Br)o1 | inconclusive: 89.1 µM [inhibitor, partial curve, poor fit] |
| Cc1cc(C)nc(SCC(=O)NN=C2CCCC2)n1 | inconclusive: 79.4 µM [inhibitor, single point] |
| CCOC(=O)c1sc2nc(CSCC(=O)OCc3ccc(C(=O)OC)o3)[nH]c(=O)c2c1C | inactive |
| CCc1cc2ccc(C)cc2nc1SCC(=O)Nc1cc(OC)c(OC)cc1C(=O)O | inconclusive: 31.6 µM [inhibitor, partial curve, poor fit] |
| CCc1cccc(Nc2cc(C)nc3ncnn23)c1 | inactive |
| Cc1cc(=O)oc2cc(OCc3ccc(C(=O)N4CCN(c5ccccc5)CC4)cc3)ccc12 | inactive |
| CC1N(C)c2cc(NC(=O)c3cccs3)c(P(=O)(Nc3ccc([N+](=O)[O-])cc3)N3CCOCC3)cc2C1(C)C (stereo unspecified) | inconclusive: 79.4 µM [inhibitor, partial curve, poor fit] |
| COC(=O)c1c(C)nc(C)c(C(=O)OC)c1-c1cccs1 | inactive |
| O=C(NCc1ccco1)c1ccc2c(=O)n(Cc3ccco3)c(SCC(=O)N3CCCC3)nc2c1 | inconclusive: 56.2 µM [inhibitor, partial curve] |
| Cc1ccc(NC(=O)CSCC(=O)NC2CCCCC2)cc1 | inconclusive: 89.1 µM [inhibitor, single point] |
| COc1ccc(NS(=O)(=O)c2ccc3oc(SCc4ccc(F)cc4)nc3c2)cc1 | inconclusive: 79.4 µM [inhibitor, partial curve, poor fit] |
| CCn1c2ccccc2c2cc(CN3CCN(Cc4ccc(OC)c(OC)c4)CC3)ccc21 | inconclusive: 89.1 µM [inhibitor, partial curve, poor fit] |
| Cc1c(C(=O)NCCc2ccc(Cl)cc2)cccc1-n1cnc2cccnc21 | inconclusive: 3.55 µM [inhibitor, partial curve, poor fit] |
